# Assay results as given in paper PMC12136788.
# Some of the results follow.
# T1: UNK ZnF1-3 (human, UniProt Q9C0B0 31-174)
# T1 sequence: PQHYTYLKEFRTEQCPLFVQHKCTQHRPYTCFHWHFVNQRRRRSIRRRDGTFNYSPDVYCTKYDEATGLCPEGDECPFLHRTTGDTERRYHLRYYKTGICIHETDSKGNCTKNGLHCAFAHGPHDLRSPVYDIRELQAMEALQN
# B1: 83263107_83263227_229_5pUTR_ENSMUSG00000031715_ENSMUST00000043359|mouse|control|control (ssRNA)
# RNA: GGGAGUUCUACAGUCCGACGAUCAGCUCUCACGCGCGAGGGCUCCGCCACCGACCCGAGCCGGCCCAGCCGCGCCGCUCGCCUCGCCGUCCUCUUCCGCGGGACUCUGCUCCACAGGCGUUUACCUCACGGCGGGAAUCACGUCAACAGAGGAUUGAGCAUCA
# B2: chr4:25749455:25749456:-_ENSG00000091490_ENST00000264868|hu_hu|hu_hu_hu_mus_False|28_98 (ssRNA)
# RNA: GGGAGUUCUACAGUCCGACGAUCGCACUAUGACCUCCCCUAGAAAACACAGGGGGAAAAAAUGUAAACCAAUGUACAAUGUUAUCGCCUUCCCUGUGUGUGGAGUGACAAACAAUUGGCUCCUUCUAGCUGCUGGAUUUGGGACAACAGAGGAUUGAGCAUCA
# B3: chr11:100445569:100445570:-_ENSMUSG00000014195_ENSMUST00000014339|mus_mus|FALSE|FALSE (ssRNA)
# RNA: GGGAGUUCUACAGUCCGACGAUCUGCAUCAAAAUCGCCCAUAUUCAUGCCCUCCUCAUCCAAGUCCUGUCCACUGUCAUAACGAGUCUUUUUCUUGGGAUCAGAGAGGAUGGUAAAGGCCUCUCCCACUUCCUUAAACUUCUUCAACAGAGGAUUGAGCAUCA
# B4: 120221762_120221882_267_CDS_ENSG00000164096_ENST00000399075|human|control|control (ssRNA)
# RNA: GGGAGUUCUACAGUCCGACGAUCACCGGAAACUGAGCGGAGUCCGGCCGCCUGCGCAGUGCGCCGCGCCCCGGGUUCCGGAAUGCACUCUGAACCUACUCUUCCCAGCGCGCAGGCGCCUGGCUCGGCUUUCCGCUGCCUCCGCAACAGAGGAUUGAGCAUCA
# B5: chr4:128860887:128860888:-_ENSMUSG00000040928_ENSMUST00000106061|mus_mus|FALSE|FALSE (ssRNA)
# RNA: GGGAGUUCUACAGUCCGACGAUCGAACACGUCAUAUUGUGUGGAGCUGCUGGAGCAAUCUCUGCCUUUGCCACGAGACCAAAUGGAAAAAGGUUUCAACUCCCGCUGGCUGUUCCUUCCAGGAGACUUGUCAAAGUGAUUGACCAACAGAGGAUUGAGCAUCA
# B6: chr7:126859785:126859786:-_ENSMUSG00000030942_ENSMUST00000033236|mus_mus|motif|central (ssRNA)
# RNA: GGGAGUUCUACAGUCCGACGAUCACCUGCAGUGAUGAGACAUCAGAUUUGCAAACAAAACAAACAAAAACCCAAGAAAAACGGACAGCAGAAAGCAUCACAAAGUGAUUCCCAUAUAAUCCACAAUGCAGCUUCUCUAUGUGUCAACAGAGGAUUGAGCAUCA
# B7: 82789453_82789656_950_CDS_ENSG00000038427_ENST00000343200|human|control|control (ssRNA)
# RNA: GGGAGUUCUACAGUCCGACGAUCAUAACAGCCUACUCUGGGAGCCCGGAUGGGAUAUCUGACAGUCUGAUCAGCCAGCCAGCCUGCGUCACACUGCUCAAAUCCAUCUUCAUAGGCAGCAAAGAGCUGCUCUGGAGUUGCUAUCAACAGAGGAUUGAGCAUCA
# B8: 148358182_148415857_270_CDS_ENSMUSG00000028975_ENSMUST00000103217|mouse|control|control (ssRNA)
# RNA: GGGAGUUCUACAGUCCGACGAUCAACCACUGGGGUAGCUGGGCCCAGGGGUGAAGGCUCGUCGGCAGCUGUGCCCGACUGCUGGAAAGCCAGGUCAAUCUCUUCGUCUGUCAGUCCUUUCUUCUUAAGAAAUGCUCUCCUGGUCAACAGAGGAUUGAGCAUCA
# B9: chr5:37680062:37680063:+_ENSMUSG00000029121_ENSMUST00000031004|mus_hu|mus_mus_mus_hu_False|1_48 (ssRNA)
# RNA: GGGAGUUCUACAGUCCGACGAUCUUUGGGUGUAGCUGGUACCUCGUACACAGGACCGUCAUACAUGCCCCUGGAAACCCCUUGCAACCCGAAAACCUUAUUCCUGAUUUUGACGCGCUGGUACAGGUGCUCCGGGAAUGGCUUCAACAGAGGAUUGAGCAUCA
# B10: chr1:58468927:58468928:-_ENSMUSG00000026034_ENSMUST00000148330|mus_mus|mus_mus_mus_hu_False|8_108 (ssRNA)
# RNA: GGGAGUUCUACAGUCCGACGAUCAAUCUAUAAUUACGAUGUUCAUUACCUUAGCUAUGUACUUAAUGAACCAAAUUACCCAAACAAAAUAAACAUGGCAAUAUAAAAAUGUUAAGAAUUUACAAAGAUUAAAAGCUUAACUUACAACAGAGGAUUGAGCAUCA
# B11: 10352105_10355188_1590_CDS_ENSG00000054523_ENST00000377093|human|control|control (ssRNA)
# RNA: GGGAGUUCUACAGUCCGACGAUCCUCAGACAUUAGUGGGUCUUCAUUGAGGUUAACAAGAUGUGGGGUCUUUUUAGGUGAGAAAACCCCUAGGGUUCCUCCAUCUUCCCGAAUGGCAACUCCCAUCUCAGCCAACAAAGCCUCCAACAGAGGAUUGAGCAUCA
# B12: chr1:27731043:27731044:-_ENSG00000158195_ENST00000430629|hu_hu|motif|central (ssRNA)
# RNA: GGGAGUUCUACAGUCCGACGAUCGAAGAGCUCCUUUCCCAUCCUCAGGGGAAGAGUGCCUGUUUUCAAACGGCAUCCCGGCGGCACAUAUACCCCCCUUCCCUAAAAUCUUGAUGUGGCAAACACACCCAAGAACCCACAGGACAACAGAGGAUUGAGCAUCA
# B13: 148797332_148798597_1152_CDS_ENSMUSG00000002957_ENSMUST00000003038|mouse|control|control (ssRNA)
# RNA: GGGAGUUCUACAGUCCGACGAUCUAGGUUCGUCUCCCGGUGCUGCAGGAACUGGCCCAGCUGGUUGCAGGCGCGGACGAGCAAGUUUGGCUCACUGUCAUGGUGGAUGAUCAGGCUGAUGGCCUCAAACAGCACAGCGUUCUUCAACAGAGGAUUGAGCAUCA
# B14: chr12:79978091:79978092:+_ENSMUSG00000021116_ENSMUST00000071230|mus_hu|motif|central (ssRNA)
# RNA: GGGAGUUCUACAGUCCGACGAUCGCUUUCCAGCUGCUCAUCCUUGGUGUAUUCUAACACCUCAGCAACAUGACGAAGAAUGCGGUAAACAGUUUUGGAUUUUGUGAAUUUGUCUUCACAUUUGAUUGCUUCCUCUGGAGAAACCAACAGAGGAUUGAGCAUCA
# B15: chr3:180328061:180328062:+_ENSG00000163728_ENST00000412756|hu_mus|FALSE|FALSE (ssRNA)
# RNA: GGGAGUUCUACAGUCCGACGAUCGCUCAUGUUUACUGACAUCCCGCGAUCCAGAGUAUGUAUAUUUUUUUUGUUUUUCAAGUGAUUUCCAAGAGUAGUCUGAACUUGCUGGUGAAGUAGAGUACUUCACAGAACUUGGCUCCCCAACAGAGGAUUGAGCAUCA
# B16: chr1:150204246:150204247:-_ENSG00000143401_ENST00000314136|hu_hu|motif|central (ssRNA)
# RNA: GGGAGUUCUACAGUCCGACGAUCGAAAGUAUCAUUCAGGCCUUCAAUUUCCCCAUUGACACACAGGCAAUUAUCAAGGACGGACUCUGUCACCUCCUCCGGGGAUCUGUUCCUUAACUCCAGGUUAAUCUUCUUCUUCAUCUCCAACAGAGGAUUGAGCAUCA
# B17: chr1:225611761:225611762:-_ENSG00000143815_ENST00000272163|hu_mus|FALSE|FALSE (ssRNA)
# RNA: GGGAGUUCUACAGUCCGACGAUCCCAGGCCAUCGGCCUCUGACCACUUCACCCUCAACAAACUUCCUACUUGGCAUUUUCUAAAAUUAGUCUGGCCGCGCUCCGGCGGGAACUCCAGCCACUCCAGGACAGUCACCAGCAGCCCAACAGAGGAUUGAGCAUCA
# B18: chr10:61154807:61154808:+_ENSMUSG00000020088_ENSMUST00000020285|mus_hu|FALSE|FALSE (ssRNA)
# RNA: GGGAGUUCUACAGUCCGACGAUCCAACUCUUUUAUGAGGUCAAAGUCACUUUUGAUAACUGAAAACGAAAAAGGAAGGUGCUAUAGAGAGAAAUUAAAUUUCACAAAAGUAUAAAAGCAAAGACUGGCUAAAAUCUGUAACUUCAACAGAGGAUUGAGCAUCA
# B19: chr6:17872010:17872011:+_ENSMUSG00000029534_ENSMUST00000127322|mus_hu|FALSE|FALSE (ssRNA)
# RNA: GGGAGUUCUACAGUCCGACGAUCUUCACUGUCUCCUCUCUUCAGGAUAUGUUCUGGGGGUAGGAUUAAGCUUUUCAUUUCUAGUAGGUAUUUUGGCACAUGAGGAUUGAAUUCCACAGCUCUAUGAAUGGCCUCUACUGCAUUCAACAGAGGAUUGAGCAUCA
# B20: 6413478_6413598_216_CDS_ENSG00000147854_ENST00000276893|human|control|control (ssRNA)
# RNA: GGGAGUUCUACAGUCCGACGAUCGAACAGCGCCCACACCCGCUCGCGCAGCUCCUCAAUCGUGGCUUUGCGAGACACGUCCUCAAUGGUGCACGUCUUGGAGCCAUCAAUGGUGCGAACCUGUAUCCACAUCUUGGCGCCUAGCAACAGAGGAUUGAGCAUCA
# B21: chr5:144087797:144087798:-_ENSMUSG00000001844_ENSMUST00000161915|mus_hu|FALSE|FALSE (ssRNA)
# RNA: GGGAGUUCUACAGUCCGACGAUCUCUCUGAAGACAUUCUGGAAUUAUACAGGAAAAUAUCUGUGCUCCUCCCCUGGCCAGGCCUUUCAAGCUAUGGGUUUUCGAGCAGACGCAGAUAAGAACAAGACCCAUCAGCACCGAAGCCAACAGAGGAUUGAGCAUCA
# B22: chr12:42180722:42180723:-_ENSMUSG00000036295_ENSMUST00000043884|mus_hu|mus_mus_mus_hu_True|38_58 (ssRNA)
# RNA: GGGAGUUCUACAGUCCGACGAUCCUGUAGGAGAAGAAUCUGUGUGUUAGCUGGCAAUCUGGCUGGGAAAGUUAAAAGCCCUAAAUCAUUACAAUCCACUGUCGAUGCUUCCAUAUAAAUGGAUCUGGGUGUAAACCAAGGCCUCAACAGAGGAUUGAGCAUCA
# Target: T1, UNK ZnF1-3
# Test: nsRBNS (natural sequence RNA bind-n-seq); RBNS binding buffer (assumed for nsRBNS): 25 mM Tris pH 7.5, 150 mM KCl, 3 mM MgCl2, 0.01% Triton X-100, 500 ug/ml BSA, 20 U/ml SUPERase-In, 4 C; UNK is unkempt and MSI1 is Musashi-1; names of the RNAs are library labels; protein concentration not given here; high values mean tight binding
row,Binder,binding signal
1,B1,0.623 enrichment R
2,B2,1.19 enrichment R
3,B3,1.07 enrichment R
4,B4,0.282 enrichment R
5,B5,0.988 enrichment R
6,B6,2.76 enrichment R
7,B7,1.28 enrichment R
8,B8,1.11 enrichment R
9,B9,0.668 enrichment R
10,B10,0.895 enrichment R
11,B11,0.802 enrichment R
12,B12,1.29 enrichment R
13,B13,1.15 enrichment R
14,B14,0.612 enrichment R
15,B15,0.692 enrichment R
16,B16,0.791 enrichment R
17,B17,1.29 enrichment R
18,B18,1.8 enrichment R
19,B19,1.17 enrichment R
20,B20,0.621 enrichment R
21,B21,1.05 enrichment R
22,B22,1.35 enrichment R
